Reference: PMC12136788
The other results are listed elsewhere or left out.

T1: UNK ZnF1-3 (human, UniProt Q9C0B0 31-174)
T1 sequence: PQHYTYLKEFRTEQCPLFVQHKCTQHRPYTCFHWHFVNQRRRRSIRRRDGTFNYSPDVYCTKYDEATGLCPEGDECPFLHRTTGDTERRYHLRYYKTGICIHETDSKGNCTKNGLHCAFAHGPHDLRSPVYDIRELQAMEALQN

B1: chr11:61589858:61589859:-_ENSMUSG00000004798_ENSMUST00000004920|mus_mus|motif|central (ssRNA)
RNA: GGGAGUUCUACAGUCCGACGAUCCUAUUUUGAAGAUAAUGCAGUUACAAAUGAGAGGUAGAAACACUGUAGUAAAGACCGGAGAAUACAAACAUCCUAUACAUAAACGUUCAAAUUAACUGCUGGAAUUUCAUACAGAUAAAUCAACAGAGGAUUGAGCAUCA
B2: chr17:74891714:74891715:+_ENSMUSG00000024072_ENSMUST00000024873|mus_mus|FALSE|FALSE (ssRNA)
RNA: GGGAGUUCUACAGUCCGACGAUCAGAUUCUUUGAUGAAAUCUCCGCUUACACCGAGGUUUAAUUUGACAUCUGGAGCUGCUAUAGAACCGCUGAGAUCUUCCGCGUCCGCCGAAGACACAAAGGUGAAGUCCCCGUUGGCAGGCAACAGAGGAUUGAGCAUCA
B3: chr8:117878989:117878990:-_ENSG00000164754_ENST00000297338|hu_hu|hu_hu_hu_mus_True|28_48 (ssRNA)
RNA: GGGAGUUCUACAGUCCGACGAUCCCAGAGGCCCUCGUUUACUGAGGACAAAAUGUGCGUAGAACAUUUUUCUUAUUUGCUAUGAAAACAGAAGAAACCUGGAUCUCCCGCUGGGAGCGGGAGGGGUGGGUGGCCCGGGGAGGGCAACAGAGGAUUGAGCAUCA
B4: chr18:78020638:78020639:+_ENSMUSG00000025428_ENSMUST00000026495|mus_mus|FALSE|FALSE (ssRNA)
RNA: GGGAGUUCUACAGUCCGACGAUCAUCAGACCUGAUAUUGCCCAAGAGGGACUGGUGCUGGCUGAUAACGUGAGACAAGAAAGCAUUCUCAAACUUUGUGAUCUUGCUGGGCUCCAGUUUGUCAAGAUAACCCCGUACACCCGCCAACAGAGGAUUGAGCAUCA
B5: chr8:101931661:101931662:-_ENSG00000164924_ENST00000353245|hu_hu|motif|central (ssRNA)
RNA: GGGAGUUCUACAGUCCGACGAUCUAAGUUAGAAAAUGCCAUAUGCCAAAAUUUUAAAUGGAACACACUACAUUUUUUUCGGAUCAAUCCCCCCCUCUCCCAGAAAAAAUAGGAACUCAUUUUUUUCAGGGUGGGGAGGAAGAGCAACAGAGGAUUGAGCAUCA
B6: 86668350_86670814_942_3pUTR_ENSMUSG00000034290_ENSMUST00000040992|mouse|control|control (ssRNA)
RNA: GGGAGUUCUACAGUCCGACGAUCUGCGUGUACCAACUGGAUCAGUUCCAAAGAAUACUGACUCGAGUCAACUUCCAUGGCCCGGAUUCCCUGCACGAUCUUCACACAUAGGUUGAGUGGGUUUGUAGCAUCAAAUGUUCUUUUCAACAGAGGAUUGAGCAUCA
B7: chr16:87731977:87731978:+_ENSMUSG00000025612_ENSMUST00000026703|mus_hu|motif|central (ssRNA)
RNA: GGGAGUUCUACAGUCCGACGAUCUGGGAUGCACUAUCAGAAUUAUUCUCCCUGACAAAUUCUUGAGUGUACUUAUAAAAGCGGCGGGAAAAUAAACAAGUCCAACUAAUUUUCUCUUACAAAUAAGUCAGUGACAGAGAGAACCAACAGAGGAUUGAGCAUCA
B8: chr2:242276830:242276831:+_ENSG00000168385_ENST00000391971|hu_hu|motif|central (ssRNA)
RNA: GGGAGUUCUACAGUCCGACGAUCUAAGGGCUUAAGUCCAUGUCCAAAAGGUGAAAUAAAGUAAAAGCAACAAUGCACCCGGUUAUCAAUGAUGUGCCGCCUGUUCAAGCCGCUCUCGUCAUGCAGGUACCUCUCAAAUUGCUCCAACAGAGGAUUGAGCAUCA
B9: chr5:31261203:31261204:-_ENSMUSG00000045302_ENSMUST00000088063|mus_hu|motif|central (ssRNA)
RNA: GGGAGUUCUACAGUCCGACGAUCGAAGCACACAACUUUCUGCAGUGGAUCGGAGCUAAAGUCUGUCUGCACCGCCUGCAAAUUCUCGGCCCUGAGUUCUAGCCCCUCGUGCUGGGUUUCCGCUCCACAUUUCUUCUCUGCUGGCAACAGAGGAUUGAGCAUCA
B10: chr2:9570881:9570882:+_ENSG00000119203_ENST00000238112|hu_mus|hu_hu_hu_mus_False|58_88 (ssRNA)
RNA: GGGAGUUCUACAGUCCGACGAUCACUUGUCUUCUGAAGGAACCAGGGCAGAGCUCCACAGUGAUCCAAAUGGAAAUGACUAAUUAACAGAAGGUCGAUCUCAGCUGGGUCGAUAAGGUCAAUGUAAGGAAGGGCAUCCAUUCCCAACAGAGGAUUGAGCAUCA
B11: chr6:15520614:15520615:+_ENSG00000008083_ENST00000341776|hu_mus|motif|central (ssRNA)
RNA: GGGAGUUCUACAGUCCGACGAUCUAGAUAUCUACGUACAAAAACUUGAACAGUUUAAUGCUAAAACAAAAUCAGUUCUCGGAAACCAGAAGAAAUUCUUCUUUAGAGCUAGUGCAAAGACAGCUUGUAUCCUACAGCAAGUACCAACAGAGGAUUGAGCAUCA
B12: chr4:99339852:99339853:+_ENSG00000138698_ENST00000453712|hu_hu|FALSE|FALSE (ssRNA)
RNA: GGGAGUUCUACAGUCCGACGAUCUGCAUGCUGUACUGUUACAUUUCCAUCUUCUACAUGUCUGUCCAGUAAAUCCAUAAGUUUUUCUACAAUCCCAUUGUCUACCAUAUGAAUACAAUUUGCAUCAUUUCUGGCAAAAUUUGCCAACAGAGGAUUGAGCAUCA
B13: chr4:19447016:19447017:-_ENSMUSG00000028228_ENSMUST00000029885|mus_mus|motif|central (ssRNA)
RNA: GGGAGUUCUACAGUCCGACGAUCUUUAUAAAAUGAUAAUCUAGAAGUUGGAAAUGCUUUUAUUUCAAAUUGCAGAAAACGGUGAAUUACUUUAAUUUGCCAGAAUCACAGCUCCUAUGAAUGGCAUUUAUAAAACUUGAUCAACAACAGAGGAUUGAGCAUCA
B14: chr10:133753640:133753641:+_ENSG00000175470_ENST00000482010|hu_hu|motif|central (ssRNA)
RNA: GGGAGUUCUACAGUCCGACGAUCAGUUUUAUCAUUUGUAGACAGUAGAAAAUGAGCAGCAUUCUGUUGUGGUAACCACCGGAUUUUAUUAAUUUUUUCCUCAAUUUCUAGACUUUUCAAAUAGUCAAACUCCGGUUCAUGACUCAACAGAGGAUUGAGCAUCA
B15: chr12:73047227:73047228:+_ENSMUSG00000034574_ENSMUST00000085299|mus_hu|motif|central (ssRNA)
RNA: GGGAGUUCUACAGUCCGACGAUCUUCAAAUCUUUUGGCAAAUUCUAGUUCAUCUUCAUUUCGGAGCAUUUCAAAAAAGUCGGAAUGCCUAUCUAAUGUUGAAUUUUCGUGUUCCCUUAAUUUAUCUAUUACAGGUUGAAUUCCCAACAGAGGAUUGAGCAUCA
B16: 86308067_86308809_1276_CDS_ENSG00000068654_ENST00000263857|human|control|control (ssRNA)
RNA: GGGAGUUCUACAGUCCGACGAUCCAUCUGGUCUCCUAGGCGACUGACUGGGCGAUACCUUGAGGGCGGCACCACCAAGAAAUCUAGAAAGAACACACUGGGAUUGAAUCUGGAUUCCAUACCAUCAUCAUCCAUUCCCGAAAACAACAGAGGAUUGAGCAUCA
B17: 99978248_99980192_1146_3pUTR_ENSG00000158417_ENST00000289371|human|control|control (ssRNA)
RNA: GGGAGUUCUACAGUCCGACGAUCCCUUUUUUCUUCUCUUUCUCUUUUUCUUCCUUUUCUCCUUUCUUUUUCUUCUUAUCUUUCUUCUUUUUGUCUCCUUCAUUGUCAUCUUCUGCAGCUGUGGGAGUCUCUGCUUUCUCUUCACAACAGAGGAUUGAGCAUCA
B18: chr1:163112212:163112213:-_ENSG00000143248_ENST00000313961|hu_hu|hu_hu_hu_mus_False|18_78 (ssRNA)
RNA: GGGAGUUCUACAGUCCGACGAUCUUUUAUUAUCAGUAAGAGUGAGUUACAUACUAGAUAAAGUAUUGGAUACAAUAAUCAGGAAACAAACACUAUUGGUCCAGAAUUUAAAACUUUUGGGAUAAAUUGCUGGCACAGGACUUACAACAGAGGAUUGAGCAUCA
B19: chr9:69870353:69870354:+_ENSMUSG00000033543_ENSMUST00000118198|mus_hu|FALSE|FALSE (ssRNA)
RNA: GGGAGUUCUACAGUCCGACGAUCUUCUACUGGAAUUCUCUGGUAUAGCACAGUGUAGUCAUUUCUGCAAUUCUAGAAUAAAUAAAAAGUCUCUUCUAUGCUUCUCUUCAAAAGCAAUGAAUAACAGAAGAUGGUGUAAAAAAGCAACAGAGGAUUGAGCAUCA
B20: 3507284_3511977_1005_3pUTR_ENSMUSG00000024908_ENSMUST00000113997|mouse|control|control (ssRNA)
RNA: GGGAGUUCUACAGUCCGACGAUCCACUGACUAUGGCCGAUUCAUUCUUCUCCUUGUGAAAAAUAUUUGACAGAAGCUGCUCAAUAAUUUCUUGCUUUUCUAGAGUGGCAAGCAGGGGGUCUGGCUCUGUACUGUUCUGAACUUCAACAGAGGAUUGAGCAUCA
B21: chr2:187370222:187370223:+_ENSG00000065548_ENST00000337859|hu_mus|FALSE|FALSE (ssRNA)
RNA: GGGAGUUCUACAGUCCGACGAUCUUUUCCUCUUCUUCCACGCGAGAAAAGACUCUAGAGUGAUUUUGGUAACAUUUGGACCUAGGGCAGAACGCUCUCUUUCAAUUAGAUCUUCUAAUGAGAUUUCAUCUUCCUUCUCUUCUUCAACAGAGGAUUGAGCAUCA
B22: chr7:141450121:141450122:+_ENSG00000106028_ENST00000265304|hu_mus|hu_hu_hu_mus_True|38_98 (ssRNA)
RNA: GGGAGUUCUACAGUCCGACGAUCUCAUCCGUUCUAUUCCUUCUCUUUUGUCUGGUCACUCAGAAAUAUAAUGUUAUCAGCUAUGAUUGUUGUUGCUUGUCGCCUCACAUUGUUUUUAUCCAUGUACUCGCCAUAGUCCACUUUCAACAGAGGAUUGAGCAUCA

Each binder was assayed against T1, UNK ZnF1-3 (assay: nsRBNS (natural sequence RNA bind-n-seq); RBNS binding buffer (assumed for nsRBNS): 25 mM Tris pH 7.5, 150 mM KCl, 3 mM MgCl2, 0.01% Triton X-100, 500 ug/ml BSA, 20 U/ml SUPERase-In, 4 C; UNK is unkempt and MSI1 is Musashi-1; names of the RNAs are library labels; protein concentration not given here; high values mean tight binding).
B1 gave a binding signal of 1.92 enrichment R.
B2 gave a binding signal of 0.853 enrichment R.
B3 gave a binding signal of 1.39 enrichment R.
B4 was tested, and the binding signal was 1.54 enrichment R.
B5 gave a binding signal of 0.613 enrichment R.
B6 gave a binding signal of 1.17 enrichment R.
B7 gave a binding signal of 0.614 enrichment R.
With B8 the binding signal was 0.982 enrichment R.
B9 was tested, and the binding signal was 1.11 enrichment R.
B10 was tested, and the binding signal was 1.4 enrichment R.
B11 showed a binding signal of 0.919 enrichment R.
For B12, the binding signal was 0.881 enrichment R.
Work on B13 yielded a binding signal of 1.01 enrichment R.
For B14, the binding signal was 0.985 enrichment R.
For B15, the binding signal was 0.558 enrichment R.
B16 gave a binding signal of 1.24 enrichment R.
For B17, the binding signal was 0.0845 enrichment R.
B18 showed a binding signal of 1.1 enrichment R.
B19 showed a binding signal of 1.16 enrichment R.
Work on B20 yielded a binding signal of 1.12 enrichment R.
B21 showed a binding signal of 0.538 enrichment R.
B22 gave a binding signal of 0.372 enrichment R.
